Assay results as given in the supplement of paper PMC9135407.
Values joined by “and” are separate entries in the source; they are usually repeats but may differ in a detail not shown here. Equal entries are not always repeated. Structures can show the parent of a compound that is named as a salt. The whole screen tested about 5,800 compounds, of which about 620 (11%) showed activity.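 How the source made its calls: active = score above a cut-off or among the top three wells of a plate; in these data no inactive exceeds 0.85.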 The entries are a selection whose mix differs from that of the whole data set.

System: primary human hepatic stellate cells (donor 1)
Experiment: scaled lipid accumulation score (0 = DMSO-like, 1 = nortriptyline-like); higher = stronger HSC inactivation (lipid re-accumulation), active = hit call of the paper
Details: 48 h
[1] = library stock concentration: 10 mM
[2] = library stock concentration: 3.33 mM
[3] = library stock concentration: 80 uM
[4] = library stock concentration: 400 uM
[5] = library stock concentration: 2 mM
[6] = library stock concentration: 1 mM

NC(C(=O)O)c1ccc(C(=O)O)c(C(=O)O)c1 (racemic)
scaled lipid accumulation score [1]: inactive: ≤ -0.006

COc1cc2c(Oc3ccc4[nH]c(C)cc4c3F)ncnc2cc1OCCCN1CCCC1 [Cediranib (AZD2171)]
scaled lipid accumulation score [2]: active: 1.1

CCCCCS(=O)(=O)CCCCCCCCCCn1c(-c2ccc(O)cc2)c(C)c2cc(O)ccc21
scaled lipid accumulation score [1]: inactive: 0.009

COc1cc2nc(N3CCN(C(=O)c4ccco4)CC3)nc(N)c2cc1OC.Cl [Prazosin hydrochloride]
scaled lipid accumulation score [1]: active: 1.35

Nc1nc(=O)[nH]cc1F [Flucytosine]
scaled lipid accumulation score: inactive: ≤ 0
scaled lipid accumulation score [2]: inactive: ≤ 0
scaled lipid accumulation score [1]: inactive: ≤ 0
scaled lipid accumulation score (library stock concentration: 15.5 mM): inactive: ≤ 0

Oc1cc(O)cc(/C=C/c2ccc(O)c(O)c2)c1 [Piceatannol]
scaled lipid accumulation score [2]: inactive: 0.001
scaled lipid accumulation score [1]: inactive: ≤ 0 and inactive: 0.452 and inactive: 0.038

Cc1cccc(C)c1NC(=O)CN1CCN(CCCC(c2ccc(F)cc2)c2ccc(F)cc2)CC1 [Lidoflazine]
scaled lipid accumulation score: inactive: ≤ 0

CN(C)CCCN1c2ccccc2CCc2ccc(Cl)cc21.Cl [Clomipramine hydrochloride]
scaled lipid accumulation score: active: 0.968

COc1cc(C)c(Cc2cnc(N)nc2N)cc1OC
scaled lipid accumulation score [1]: inactive: ≤ 0

Cc1c(C)c2c(c(C)c1O)CCC(C)(CCCC(C)CCCC(C)CCCC(C)C)O2 (stereo not drawn) [Alpha-tochopherol]
scaled lipid accumulation score [1]: inactive: ≤ 0

CN(C)C(=O)c1cc2cnc(Nc3ccc(N4CCNCC4)cn3)nc2n1C1CCCC1 [Ribociclib]
scaled lipid accumulation score [3]: inactive: ≤ 0
scaled lipid accumulation score [4]: inactive: 0.035
scaled lipid accumulation score [5]: inactive: ≤ 0
scaled lipid accumulation score [1]: inactive: 0.295

CN(C)C(=O)c1cc2cnc(Nc3ccc(N4CCNCC4)cn3)nc2n1C1CCCC1
scaled lipid accumulation score [2]: inactive: 0.18
scaled lipid accumulation score [1]: inactive: 0.69

NC[C@H]1O[C@H](O[C@H]2[C@H](O)[C@@H](O[C@H]3O[C@H](CO)[C@@H](O)[C@H](N)[C@H]3O)[C@H](N)C[C@@H]2N)[C@H](N)[C@@H](O)[C@@H]1O [Bekanamycin sulfate]
scaled lipid accumulation score [1]: inactive: 0.004

C=C1[C@H](CO)[C@@H](O)C[C@@H]1n1cnc2c(=O)[nH]c(N)nc21 [Entecavir Hydrate]
scaled lipid accumulation score [2]: inactive: ≤ 0
scaled lipid accumulation score [1]: inactive: ≤ 0

C[C@@H]1O[C@@H](OC[C@H]2O[C@@H](Oc3c(-c4ccc(O)c(O)c4)oc4cc(O)cc(O)c4c3=O)[C@H](O)[C@@H](O)[C@@H]2O)[C@H](O)[C@H](O)[C@H]1O [Rutin]
scaled lipid accumulation score [2]: inactive: ≤ 0
scaled lipid accumulation score [1]: inactive: 0.08

C[C@@H]1O[C@@H](OC[C@H]2O[C@@H](Oc3c(-c4ccc(O)c(O)c4)oc4cc(O)cc(O)c4c3=O)[C@H](O)[C@@H](O)[C@@H]2O)[C@H](O)[C@H](O)[C@H]1O
scaled lipid accumulation score [1]: inactive: ≤ 0

C=C1C(=CC=C2CCC[C@]3(C)[C@@H]([C@H](C)CCCC(C)C)CC[C@@H]23)C[C@@H](O)C[C@@H]1O [Alfacalcidol]
scaled lipid accumulation score [1]: active: 1.03

COc1ccnc2[nH]cc(C(=O)C(=O)N3CCN(C(=O)c4ccccc4)C[C@H]3C)c12
scaled lipid accumulation score [2]: inactive: ≤ 0
scaled lipid accumulation score [1]: inactive: 0.019

CCCC(=O)Nc1ccc(OCC(O)CNC(C)C)c(C(C)=O)c1 (stereo not given) [Acebutolol hydrochloride]
scaled lipid accumulation score: inactive: ≤ 0
scaled lipid accumulation score (library stock concentration: 5.4 mM): inactive: ≤ 0
scaled lipid accumulation score [1]: inactive: ≤ 0

CCCC(=O)Nc1ccc(OCC(O)CNC(C)C)c(C(C)=O)c1 (stereo not given) [Acebutolol HCl]
scaled lipid accumulation score [2]: inactive: ≤ 0
scaled lipid accumulation score [1]: inactive: ≤ -0.001

CC(=O)Nc1ccc(OCC(O)CNC(C)C)cc1 (stereo not given) [Practolol]
scaled lipid accumulation score: inactive: ≤ 0
scaled lipid accumulation score (library stock concentration: 7.5 mM): inactive: ≤ -0.006

N[C@@H]1CCN(O)C1=O
scaled lipid accumulation score [1]: inactive: ≤ 0

CO/N=C(\C(=O)N[C@@H]1C(=O)N2C(C(=O)O)=C(CSC(=O)c3ccco3)CS[C@H]12)c1csc(N)n1
scaled lipid accumulation score [1]: inactive: ≤ 0

CO/N=C(\C(=O)N[C@@H]1C(=O)N2C(C(=O)O)=C(CSC(=O)c3ccco3)CS[C@H]12)c1csc(N)n1 [Ceftiofur HCl]
scaled lipid accumulation score [2]: inactive: 0.015
scaled lipid accumulation score [1]: inactive: ≤ 0

C#CCCCCCCCCCCCCCCCC(=O)O [17-Octadecynoic acid]
scaled lipid accumulation score [6]: inactive: 0.029

C#CCCCCCCCCCCCCCCCC(=O)O [17-Octadecynoic Acid]
scaled lipid accumulation score [6]: inactive: 0.016

O=C(O)CCC/C=C\C[C@@H]1C(=O)C[C@@H](O)[C@@H]1/C=C/[C@@H](O)CC1CCCCC1 [8-iso-16-cyclohexyl-tetranor Prostaglandin E2]
scaled lipid accumulation score [6]: inactive: ≤ 0

COc1cc2c(cc1O)[C@@H](Cc1ccc(O)cc1)[N+](C)(C)CC2 [Magnocurarine iodide]
scaled lipid accumulation score [1]: inactive: 0.116

C[C@H](CCC(=O)O)[C@H]1CC[C@H]2[C@@H]3C[C@H](O)[C@@H]4C[C@H](O)CC[C@]4(C)[C@H]3CC[C@]12C [Hyodeoxycholic acid (HDCA)]
scaled lipid accumulation score [2]: inactive: ≤ 0
scaled lipid accumulation score [1]: inactive: ≤ 0

N=C(N)c1ccc(N=NNc2ccc(C(=N)N)cc2)cc1 [Diminazene Aceturate]
scaled lipid accumulation score [2]: inactive: ≤ 0
scaled lipid accumulation score [1]: inactive: ≤ -0.001

N=C(N)c1ccc(N=NNc2ccc(C(=N)N)cc2)cc1
scaled lipid accumulation score [1]: inactive: 0.113

COc1cc2ncnc(Sc3nnc(C)s3)c2cc1OC
scaled lipid accumulation score [1]: active: 0.919

O=C(Nc1ccccc1)OCC(CN1CCCCC1)OC(=O)Nc1ccccc1 (stereo not given) [Diperodon hydrochloride]
scaled lipid accumulation score: inactive: 0.714

CC1(C)C(=O)N(CCN2CCC(C(=O)c3ccc(F)cc3)CC2)c2ccccc21 [LY-310,762 hydrochloride]
scaled lipid accumulation score [1]: inactive: 0.041

NC(=O)Nc1sc(-c2ccc(F)cc2)cc1C(N)=O
scaled lipid accumulation score [3]: inactive: ≤ -0.009
scaled lipid accumulation score [4]: inactive: ≤ -0.009
scaled lipid accumulation score [5]: inactive: ≤ -0.009
scaled lipid accumulation score [2]: inactive: ≤ 0
scaled lipid accumulation score [1]: inactive: ≤ 0 and inactive: 0.009

N[C@@H](CC(=O)N1CCn2c(nnc2C(F)(F)F)C1)Cc1cc(F)c(F)cc1F [Sitagliptin]
scaled lipid accumulation score (library stock concentration: 4.9 mM): inactive: ≤ 0

N[C@@H](CC(=O)N1CCn2c(nnc2C(F)(F)F)C1)Cc1cc(F)c(F)cc1F [Sitagliptin phosphate monohydrate]
scaled lipid accumulation score [2]: inactive: ≤ 0
scaled lipid accumulation score [1]: inactive: ≤ 0
